From PubChem BioAssay AID1794791 (DTP/NCI, 2022)
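Testing used 96-well plates and a 48-hour single-concentration exposure. Example: -40 means 40% of the starting cells died.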 A number of entries come with more than one value. They are shown here; other results are not. The source may hold further records. For some assays here: This drug was run again and again over the years, at its own concentration, as given; each value is one run. Counts like (3×) give the number of equal values in this list. Some values that stand alone complete this part of the results.

Test system: MDA-N (NCI-60) percent
Experiment: NCI-60 one-dose screen, 48 h (100 = growth as untreated, 0 = no growth, -100 = all killed)
Details: 2.5 mM
Procedure: Growth inhibition of the MDA-N human tumor cell line is measured as a screen for anti-cancer activity. Cells are grown in 96 well plates and exposed to the test compound for 48 hours. Compounds are tested at a single concentration, which is 10^-5 M for most compounds. The reported endpoint is percent growth (GI% or GIPRCNT), where numbers from 0 - 100% represent growth inhibition, and numbers from -100% - 0 represent cell death. For example, a value of 40 represents 60% growth inhibition. A value of 0 means no net growth occurred over the course of the experiment. A value of -40 indicates 40% of cells at the beginning of the experiment died by the end of the experiment. A value of -100 means all cells are dead at the end of the experiment.
NCI-60 Human Tumor Cell Lines Screen was performed using the standard one-dose NCI protocol, which is described in more detail at https://dtp.cancer.gov/discovery_development/nci-60/default.htm.
Compounds with GIPRCNT values below 10 were considered active. Activity score was based on GIPRCNT using the following formula: […]
Score is 0 for GIPRCNT values of 100 or above, 50 for GIPRCNT values of 0, and 100 for GIPRCNT values of -100.

## O=c1[nH]cc(F)c(=O)[nH]1
Runs of 1993
  growth: 25.6, 24.3 (2×), 28.4, 37.1, 40.9, 30.9, 22.1, 27.4, 21%
Runs of 1994
  growth: 30.2, 26.7, 12.6, 14.2, 25.7, 28.2, 21.1, 27.7, 38.6, 26.5 (2×), 22, 29.4 (2×), 38.2, 24.2, 32.8, 33.5, 8.96, 31.5, 30.6, 34.5, 23, 45.8, 19.4, 24.4, 27, 24.5, 29.7, 25.5, 24, 19.7, 17.9, 35.4%
Runs of 1995
  growth: 33.3, 32.9, 22.1, 17.9, 22.3, 34.1, 21.9, 23.8, 29.8, 27, 18.5, 32.3, 26.5, 27.5, -20.3, 10.3, 27.4, 28, 12.8, 36.5, 33.2, 5.28, 23.1, 29.7, 35.9, 38.7, 26.9, 15.3, 23.4, 18.4, 23.7, 24.7, 29, 33.4, 32.8, 21, 29.9, 46.8, 23.3%
Runs of 1996
  growth: 23.5, 31.1, 22.2, 21.3, 42.3, 25.5, 22.5, 14.1, 33.2, 21.2, 9.77, 36.6, 37.7, 22.3, 33.4, 21.1%
Runs of 2000
  growth: 0.386%
